Measured values published in the supplement of paper PMC3334620.
Over roughly 33,000 sequences, “E-score (-0.5 to 0.5)” has its median near -0.04; the highest 2% begin near 0.36. The list shows a part of the results.

What follows are sequences tested against T1, Hmlalpha2 (UniProt P0CY09) (assay: PBM E-score (8-mer binding enrichment) (E-score (-0.5 to 0.5)); higher = stronger / more preferred TF binding; most listed sequences are background and not binding sites). Settings: protein concentration: 200 nM; construct: GST-full length.
T1 sequence: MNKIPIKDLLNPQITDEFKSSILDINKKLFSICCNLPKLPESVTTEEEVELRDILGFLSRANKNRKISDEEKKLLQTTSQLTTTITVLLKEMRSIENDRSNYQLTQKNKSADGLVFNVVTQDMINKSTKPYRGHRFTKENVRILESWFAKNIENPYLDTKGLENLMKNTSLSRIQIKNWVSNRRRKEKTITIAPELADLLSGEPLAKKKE
Summary of the method: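 Detection of bound protein used fluorescent anti-GST, with scans normalised by masliner. The proteins were GST-tagged yeast transcription factors applied at about 100-200 nM to universal all-10-mer Agilent arrays made double-stranded by primer extension. Each ungapped eight-base word, pooled with its reverse complement, was scored with an E-score from the Universal PBM Analysis Suite.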

First: AATTATAC
Second: AAAAGAGA
The “PBM E-score” value of the first is higher: 0.155 for the first, -0.151 for the second.

Compared with ACGGTAGA, CGGATGAG is higher in “PBM E-score” value: -0.22 for the first, -0.179 for the second.

Going from AGACAACG to ACGTGTCT, the “PBM E-score” value rises from 0.123 to 0.193.

Going from CCGAGGAA to GCCTCGCA, the “PBM E-score” value falls from -0.098 to -0.259.

Compared with AATCCACT, CTAAGGCC is lower in “PBM E-score” value: -0.029 for the first, -0.194 for the second.

Going from CATGTAAG to CACAAGTA, the “PBM E-score” value falls from 0.47 to 0.101.

Compared with AGAGATCG, AACCGCTC is higher in “PBM E-score” value: -0.168 for the first, -0.0841 for the second.

Compared with AGAAGCAA, AGGATTGG is lower in “PBM E-score” value: 0.0263 for the first, -0.0838 for the second.

Going from CCCAACCG to ACAATACG, the “PBM E-score” value rises from -0.285 to 0.22.

Going from CGACTTCA to ACACACTG, the “PBM E-score” value rises from -0.0985 to 0.159.

Going from ACCATCGC to ACTTTTGA, the “PBM E-score” value rises from 0.0727 to 0.0828.

First: TCTTAGAA
Second: CACTTATA
The “PBM E-score” value of the first is higher: 0.0836 for the first, -0.011 for the second.

First: GGAGAGTA
Second: ACTGCAAG
The “PBM E-score” value of the first is lower: -0.252 for the first, -0.041 for the second.

First: CCAGAGTA
Second: CTGCCAGC
The “PBM E-score” value of the first is higher: -0.121 for the first, -0.238 for the second.

Compared with GCGTATAA, GTAGACAA is lower in “PBM E-score” value: 0.337 for the first, 0.255 for the second.

Going from CATATTCG to AGTTTGTC, the “PBM E-score” value rises from -0.065 to 0.0591.

Compared with AGTTACCG, ACGGTATG is lower in “PBM E-score” value: 0.155 for the first, 0.0304 for the second.

Going from ATCGCTAC to AAATCAAA, the “PBM E-score” value rises from -0.0269 to 0.073.

Going from TGAACCAA to ACATCAAG, the “PBM E-score” value rises from 0.171 to 0.227.

Going from CTGATCCA to ATCTATAG, the “PBM E-score” value falls from 0.0644 to -0.052.

First: AACTCCGG
Second: GAGTGCTA
The “PBM E-score” value of the first is higher: 0.00054 for the first, -0.0626 for the second.

First: CGCGCTCC
Second: GCGGGTCC
The “PBM E-score” value of the first is higher: -0.0594 for the first, -0.198 for the second.

Compared with CGTCCTTA, GCTATTCC is higher in “PBM E-score” value: -0.133 for the first, -0.108 for the second.

Going from AACAAGCC to AAAGAGCG, the “PBM E-score” value falls from 0.133 to -0.0726.

Compared with GCCCCACA, GAAGGAGC is lower in “PBM E-score” value: -0.224 for the first, -0.396 for the second.

Compared with ACATCTGG, CTCCACGA is lower in “PBM E-score” value: -0.0314 for the first, -0.0917 for the second.

Compared with CCAGGGCG, ATGCCTTG is higher in “PBM E-score” value: -0.184 for the first, 0.00843 for the second.

First: GAATTGAC
Second: AATATAGG
The “PBM E-score” value of the first is higher: 0.104 for the first, -0.00425 for the second.

First: TCGAACAA
Second: CTGGCTCA
The “PBM E-score” value of the first is higher: 0.14 for the first, -0.164 for the second.

Compared with CGTGGGAC, ACCTCCTC is lower in “PBM E-score” value: -0.0917 for the first, -0.127 for the second.

First: CCCTTCTC
Second: GAATCTCC
The “PBM E-score” value of the first is lower: -0.337 for the first, -0.16 for the second.

First: CGCATCGC
Second: CCGAAAGA
The “PBM E-score” value of the first is lower: -0.212 for the first, -0.201 for the second.

Compared with CTTGTGTA, ATTGATGG is lower in “PBM E-score” value: 0.41 for the first, 0.08 for the second.

Compared with CGACGGAG, CACCGGTG is lower in “PBM E-score” value: -0.22 for the first, -0.363 for the second.

Going from CCTACGAA to CCGTTCAC, the “PBM E-score” value falls from -0.0968 to -0.167.

Going from GAAGGTCA to CAGCGCGG, the “PBM E-score” value rises from -0.0603 to -0.0131.

Compared with ATCGTCGC, ATCCTCCG is lower in “PBM E-score” value: 0.0996 for the first, -0.311 for the second.

First: CGACACTC
Second: CTAGTAAC
The “PBM E-score” value of the first is lower: 0.00542 for the first, 0.027 for the second.

Going from GACAATAA to GACCCGCA, the “PBM E-score” value falls from 0.113 to -0.146.

First: CCTACTCC
Second: GCGCTCCA
The “PBM E-score” value of the first is higher: -0.12 for the first, -0.291 for the second.

Going from CGATTCTC to ACGTACTA, the “PBM E-score” value rises from -0.0697 to 0.256.

Going from GAGGGGAA to ATCAATGA, the “PBM E-score” value rises from -0.264 to 0.213.

Compared with AGACCCCT, GGCCCACC is lower in “PBM E-score” value: -0.26 for the first, -0.287 for the second.

Compared with ACGGGCCC, CGGACGAA is higher in “PBM E-score” value: -0.198 for the first, 0.154 for the second.

Compared with GGACTTGA, ATTCTTGG is higher in “PBM E-score” value: -0.26 for the first, -0.0614 for the second.

Compared with ATTAAACC, AACATGTA is higher in “PBM E-score” value: 0.0575 for the first, 0.484 for the second.

Going from AATCTTAT to TCTACAAA, the “PBM E-score” value rises from 0.114 to 0.252.

Compared with ACTTGAGA, AATGTAGT is higher in “PBM E-score” value: 0.0583 for the first, 0.249 for the second.

Going from ACCTTGGG to AGGTGGCG, the “PBM E-score” value falls from -0.151 to -0.196.

First: TGTGTGAA
Second: ACTTTCCG
The “PBM E-score” value of the first is higher: 0.335 for the first, -0.202 for the second.

Going from AGCAATAC to ATCAATTA, the “PBM E-score” value rises from 0.192 to 0.263.

Going from CTAAGATA to CACCTCTC, the “PBM E-score” value falls from -0.0324 to -0.182.

Going from ATGTGTCG to CAGTTCGG, the “PBM E-score” value falls from 0.144 to -0.104.

Going from CGTGAGCC to TCATGAAA, the “PBM E-score” value rises from -0.137 to -0.126.

Compared with GAGCCGGC, AGTTTATG is higher in “PBM E-score” value: -0.351 for the first, 0.0382 for the second.

Going from GGGGTGGA to AACGAAAG, the “PBM E-score” value rises from -0.271 to 0.0852.

Compared with CACAAATC, CATTGGTC is lower in “PBM E-score” value: -0.074 for the first, -0.135 for the second.

First: AAAGTTCC
Second: GTTTTCGA
The “PBM E-score” value of the first is lower: -0.169 for the first, 0.09 for the second.

Going from AATATTCA to CAACAGTA, the “PBM E-score” value falls from 0.142 to 0.106.

Going from AAGTCCCA to AGTAGATC, the “PBM E-score” value rises from -0.329 to -0.0121.

Going from CTGAGTGA to ATTCCCCG, the “PBM E-score” value rises from 0.0278 to 0.0375.

First: CATTTGAG
Second: CACTGCTG
The “PBM E-score” value of the first is higher: 0.111 for the first, -0.316 for the second.

First: CGGGACCA
Second: AATTTCAT
The “PBM E-score” value of the first is lower: -0.225 for the first, 0.0645 for the second.

Going from ACCGACAA to AAAAAGCG, the “PBM E-score” value rises from -0.23 to -0.0415.

Going from GGGGCTCA to AAAGAAAT, the “PBM E-score” value rises from -0.306 to 0.175.

Going from CCCTATCC to CACTTACA, the “PBM E-score” value rises from -0.338 to 0.281.

Compared with GCTGTCGA, GTCGGAAA is higher in “PBM E-score” value: -0.092 for the first, -0.0612 for the second.

First: GTGTACTA
Second: GCGCCGCC
The “PBM E-score” value of the first is higher: 0.311 for the first, -0.159 for the second.

First: ATTCTACG
Second: GTAAGGTA
The “PBM E-score” value of the first is lower: 0.157 for the first, 0.284 for the second.

First: ACAGGTCA
Second: CTCGGGTA
The “PBM E-score” value of the first is lower: -0.0382 for the first, 0.0203 for the second.

Going from AAGACCTA to ACAGCGCC, the “PBM E-score” value rises from -0.143 to -0.00098.

Going from CGCCCGTC to AATACGGG, the “PBM E-score” value rises from -0.192 to -0.051.

First: ATGAGCCG
Second: AGAGTATA
The “PBM E-score” value of the first is lower: -0.236 for the first, 0.116 for the second.

First: GAGTTCCC
Second: ACCTTCTG
The “PBM E-score” value of the first is lower: -0.146 for the first, -0.0867 for the second.

First: GATGCGTA
Second: CAGTTCTC
The “PBM E-score” value of the first is higher: 0.21 for the first, -0.179 for the second.

First: AGAGGAAT
Second: ATGCCCTG
The “PBM E-score” value of the first is lower: -0.0603 for the first, -0.0289 for the second.

First: CAAGCTTG
Second: ACATAATC
The “PBM E-score” value of the first is lower: 0.0552 for the first, 0.308 for the second.

Going from AAACCCCC to AGACTTTC, the “PBM E-score” value rises from -0.257 to -0.193.

Compared with CTATCTCA, CGCGTGAA is higher in “PBM E-score” value: -0.184 for the first, 0.214 for the second.

Going from TATGAAAA to GAACTGGA, the “PBM E-score” value falls from 0.143 to -0.147.

Going from ATGGTCAG to AGGATTAA, the “PBM E-score” value rises from -0.0329 to 0.0424.

First: CAAACTCC
Second: GATAGGCA
The “PBM E-score” value of the first is higher: 0.00776 for the first, -0.125 for the second.

Compared with AGAGACAA, TGAGCTAA is higher in “PBM E-score” value: -0.113 for the first, 0.107 for the second.

First: AACATGGT
Second: GGAGCTAA
The “PBM E-score” value of the first is higher: 0.384 for the first, -0.0791 for the second.

First: AGGTAAGG
Second: ATCCTAAC
The “PBM E-score” value of the first is lower: -0.0565 for the first, 0.116 for the second.

First: CGAGCCGC
Second: AGACTACT
The “PBM E-score” value of the first is lower: 0.0569 for the first, 0.111 for the second.
